Assay results reported in PubChem BioAssay AID902 (National Center for Advancing Translational Sciences (NCATS), 2007).
Out of some 130,000 compounds screened, about 1,900 (1.5%) were called active. Inconclusive results, whose numbers are uncertain, are shown with a selection of clear calls. Calls follow the shape of the dose curve; as a rule, active = well fitted cell-killing curve with a large enough effect; inconclusive = small, poorly fitted or top-dose-only effect; inactive = no such curve, though single readings can be large or run the other way. Where the call is inconclusive, the potency comes from a doubtful curve fit.

Test: qHTS Screen for Compounds that Selectively Target Cancer Cells with p53 Mutations: Cytotoxicity of p53ts Cells at the Nonpermissive Temperature; also: nearly all actives have a fitted effect of over 55% in size
Conditions: H1299-p53A138V viability at 39C, ATP luminescence, 24 h; activity change, negative = cell killing: at 46.1 µM (top of the series)
% is scaled to controls: 0 for no effect and ±100 for the full control effect; potency is read from the fitted curve at half-maximal effect; tags tell the direction and shape of the fitted curve.

| Compound | Potency | activity change, negative = cell killing |
| --- | --- | --- |
| COc1ccc(-c2nnc(Nc3nc4c(OC)cccc4s3)o2)c(OC)c1 | active: 10 µM | – |
| CCCCN(CC)CCCNC(=O)c1ccc2c(c1)N(Cc1ccc(C)cc1)C(=O)c1ccccc1S2 | active: 12.6 µM | – |
| CCCN1CCN(c2ncnc3sc(C(=O)Nc4ccc(OC(F)(F)F)cc4)c(C)c23)CC1 | inconclusive: 31.6 µM [cytotoxic, single point] | – |
| Cc1ccccc1CN1C(=O)C(O)(c2c[nH]c3ccccc23)c2cc(Cl)ccc21 (centres undefined) | inconclusive: 25.1 µM [cytotoxic, single point] | – |
| Cc1cc(C)c(NC(=O)Cn2nnc3sc4c(c3c2=O)CCC(C(C)(C)C)C4)c(C)c1 (centres undefined) | active: 12.6 µM | – |
| CCCCN1C(C(=O)c2ccccc2)=C(OC(=O)CC)c2ccccc2S1(=O)=O | active: 15.8 µM | – |
| CCCCCCCCCCCCCCSCC(=O)O | inconclusive: 20 µM [cytotoxic, partial curve] | – |
| Cc1cccc(NC(=O)Cn2c(=O)n(Cc3nc(-c4ccccc4)no3)c(=O)c3ccccc32)c1 | inconclusive: 12.6 µM [cytotoxic, partial curve] | – |
| C=C(C)COc1ccc(-c2[nH]ncc2-c2ccc(OC)c(OC)c2)c(O)c1 | inconclusive: 10 µM [cytotoxic, partial curve] | – |
| CC(C)(CO)Cc1cc(C(C)(C)C)c(O)c(C(C)(C)C)c1 | active: 31.6 µM | – |
| COc1ccc2cc3c(N)c(C(=O)N4CCCC4)sc3nc2c1 | inconclusive: 20 µM [cytotoxic, partial curve] | – |
| c1ccc([C@H](CCN2CCCC2)c2ccccn2)cc1 | – | inactive: 12.9% [at 9.22 µM] |
| COc1ccc(NC(=O)CCCS(=O)(=O)c2nc(-c3ccccc3OC)cc(C(F)(F)F)n2)c(OC)c1 | inconclusive: 7.94 µM [cytotoxic, single point] | – |
| Cc1ccc(CNC(=O)C2CCCN(c3nc4ccccc4n4cccc34)C2)cc1 (centres undefined) | inconclusive: 3.55 µM [cytotoxic, partial curve, poor fit] | – |
| CCOc1ccccc1-n1c(N)c(C(=O)OC)c2nc3ccccc3nc21 | inactive | – |
| N#C/C(=C/c1ccc(O)cc1)c1nc(-c2ccc(-c3ccccc3)cc2)cs1 | inconclusive: 12.6 µM [cytotoxic, partial curve] | – |
| Cc1occc1-c1nc(-c2ccccn2)no1 | active: 12.6 µM | – |
| COc1cccc(CNC(=O)CN(c2ccc(C)cc2)S(=O)(=O)N(C)C)c1OC | inconclusive: 0.004 µM [cytotoxic, full curve, poor fit] | – |
| CCCCCCc1nnc(NC(=O)OCC)s1 | inactive | – |
| Cn1c(C(=O)NCc2ccccc2Cl)cc2sc(Cl)cc21 | inconclusive: 0.005 µM [cytotoxic, full curve, poor fit] | – |
| Cc1cn2c(=O)cc(COC(=O)COc3ccc(C)c(C)c3)nc2s1 | inconclusive: 0.0126 µM [cytotoxic, full curve, poor fit] | – |
| O=c1[nH]c(CSc2nnc(-c3ccncc3)n2Cc2ccco2)nc2ccccc12 | inactive | – |
| Cc1ccc(CNC(=O)c2ccc3c(c2)NC(=O)C(CS(=O)(=O)Cc2cccc(C)c2)N3)cc1 (centres undefined) | inconclusive: 3.98 µM [cytotoxic, full curve] | – |

| Compound | Potency | activity change, negative = cell killing |
| --- | --- | --- |
| Cc1cc2nn(-c3ccc(F)cc3)nc2cc1NC(=O)c1ccc(C(C)(C)C)cc1 | inconclusive: 15.8 µM [cytotoxic, single point] | – |
| COc1ccc2c(c1)c(=O)c(C(=O)c1ccc(F)cc1)cn2CC(=O)Nc1ccc2c(c1)OCCO2 | inconclusive: 20 µM [cytotoxic, single point] | – |
| Cc1ccc(NC(=O)Cn2c(=O)ccc3cc(S(=O)(=O)N4CCCC4)ccc32)cc1C | inactive | – |
| OCCN1CCN(c2ncnc3c2cnn3-c2cccc(Cl)c2)CC1 | inconclusive: 10 µM [cytotoxic, partial curve] | – |
| Brc1ccc(CN2CCc3nc(Nc4ccccc4)ncc3C2)s1 | inconclusive: 35.5 µM [cytotoxic, single point] | – |
| COc1cc(C(=O)N/N=C(\c2ccccc2)c2ccccn2)cc(OC)c1OC | inconclusive: 6.31 µM [cytotoxic, full curve, poor fit] | – |
| O=c1c2ccccc2nnn1CSc1nnc2sc3ccccc3n12 | inconclusive: 2 µM [cytotoxic, full curve] | – |
| O=C(N/N=C/c1ccc(O)cc1)c1csc2c1CCCC2 | inactive | – |
| COC(=O)c1ccc(OCC2c3cc(OC)c(OC)cc3CCN2C(=O)c2ccccc2C)cc1 (centres undefined) | inconclusive: 0.0079 µM [cytotoxic, full curve] | – |
| CCOCCCn1c(C)nc2c(c1=O)c1nc3ccccc3nc1n2CCC1=CCCCC1 | inactive | – |
| CC(C)NC(=O)C1CCC(Cn2c(=O)c3sccc3n(CC(=O)N3CCCC3)c2=O)CC1 (centres undefined) | inactive | – |
| CCCNC(=O)c1noc2c1CCc1ccccc1-2 | inconclusive: 10 µM [cytotoxic, partial curve] | – |
| Cc1ccc(C)c(N(C)C(=O)c2cc3c(s2)-c2ccccc2OC3)c1 | inconclusive: 31.6 µM [cytotoxic, single point] | – |
| Cc1cccc(NC(=O)CSc2nnc([C@@H]3CCCN3C(=O)OC(C)(C)C)o2)c1C | inconclusive: 31.6 µM [cytotoxic, single point] | – |
| CCn1c2ccccc2c2cc(CN3CCN(Cc4ccc(Cl)cc4)CC3)ccc21 | inconclusive: 10 µM [cytotoxic, partial curve] | – |
| CC(=O)c1ccc(NC(=O)C(C)n2nc(-c3ccccc3)ccc2=O)cc1 (centres undefined) | inconclusive: 0.0158 µM [cytotoxic, full curve, poor fit] | – |
| COCC(C)NC(=O)NC1(C(F)(F)F)Oc2ccc(Cl)cc2O1 (centres undefined) | inconclusive: 31.6 µM [cytotoxic, single point] | – |
| S=C(Nc1cccc(Cl)c1)Nc1cccc2cnccc12 | inconclusive: 28.2 µM [cytotoxic, single point] | – |
| Cc1cc(C)n(-c2ccc(C(=O)Nc3ccc(S(=O)(=O)NCc4ccco4)cc3)cc2)n1 | inconclusive: 15.8 µM [cytotoxic, partial curve] | – |
| O=C(Cn1ncc2c3ccccc3n(Cc3cccc(Cl)c3)c2c1=O)NCCCc1ccccc1 | inactive | – |
| Cc1cccc(C)c1NC(=O)Cn1cc(C(=O)c2ccco2)c2ccccc21 | inconclusive: 25.1 µM [cytotoxic, single point] | – |
| CCc1nc2c(cnn2-c2ccc(C)cc2)c(=O)n1-c1ccc(C)cc1 | inconclusive: 31.6 µM [cytotoxic, single point] | – |
| CCOc1cc(C(=S)N2CCCC2)ccc1OCC(=O)Nc1c(C)cc(C)cc1C | inactive | – |

| Compound | Potency | activity change, negative = cell killing |
| --- | --- | --- |
| COc1ccc(S(=O)(=O)c2c(SC)nn(CC(=O)Nc3ccc(C)c(Cl)c3)c2N)cc1 | inactive | – |
| Cc1ccc(CNS(=O)(=O)c2cc(C(=O)Nc3ccc(C(C)C)cc3)ccc2F)cc1 | inconclusive: 15.8 µM [cytotoxic, partial curve] | – |
| CCN(CC)c1ccc(NC(=O)c2ccccc2F)cc1 | inconclusive: 15.8 µM [cytotoxic, partial curve] | – |
| CN=c1scc(C)n1/N=C/c1ccc(O)cc1O | active: 5.01 µM | – |
| Cn1ccnc1SCC(=O)Nc1ccc2ccccc2c1 | inconclusive: 15.8 µM [cytotoxic, partial curve] | – |
| COc1ccc(-n2c(=O)c3c4c(sc3n(CC(=O)N3CCCCC3C)c2=O)CCC4)c(OC)c1 (centres undefined) | inactive | – |
| CC1CCN(CCCNC(=O)CN2C(=O)CSc3ccc(S(=O)(=O)N4CCC(C)CC4)cc32)CC1 | inconclusive: 2 µM [cytotoxic, partial curve] | – |
| c1cc2c3c(c1)c1c(n3CCNC2)CCCC1 | inconclusive: 12.6 µM [cytotoxic, partial curve] | – |
| COc1ccccc1OCCCCn1c(C2CC(=O)N(c3ccccc3Cl)C2)nc2ccccc21 (centres undefined) | active: 20 µM | – |
| O=C(CSc1nnc(-c2ccccc2Br)o1)N1CCN(C(=O)c2ccco2)CC1 | inactive | – |
| Cc1cccc(-c2nnc(NC(=O)c3ccc(Cl)cc3)o2)c1 | inconclusive: 6.31 µM [cytotoxic, full curve] | – |
| CC(C)=CCC1=C(O)c2ccccc2C(=O)C1=O | inconclusive: 2.51 µM [cytotoxic, full curve, poor fit] | – |
| Cc1cc(NC(=O)CSc2nnc(-c3ccc4c(c3)OCCO4)o2)no1 | active: 0.794 µM | – |
| CCCCNc1ncnc2c1cnn2-c1ccccc1 | inconclusive: 15.8 µM [cytotoxic, partial curve] | – |
| Oc1ccc(Br)cc1/C=N/n1cnc2ccccc21 | inactive | – |
| COc1ccc(Cl)cc1NC(=O)Cn1ncc2c3ccccc3n(Cc3ccccc3)c2c1=O | inconclusive: 12.6 µM [cytotoxic, partial curve] | – |
| Cc1ccc2ncc(S(=O)(=O)c3ccccc3)c(N3CCCCC3C)c2c1 (centres undefined) | inconclusive: 25.1 µM [cytotoxic, single point] | – |
| COc1ccc(C2=NC3(CCCCCC3)N(CC(=O)Nc3ccc(C)c(C)c3)C2=O)cc1 | inconclusive: 15.8 µM [cytotoxic, partial curve] | – |
| O=C(Nc1ccc(C(=O)N2CCCCC2)cc1)c1nsc2ccccc12 | active: 3.16 µM | – |
| COc1ccc(CNC(=O)C(CCSC)NS(=O)(=O)c2ccc3c(c2)oc(=O)n3C)cc1 (centres undefined) | inactive | – |
| Fc1ccc(Nc2nc(SCc3cccc(Cl)c3)nc3ccccc23)cc1 | inconclusive: 35.5 µM [cytotoxic, single point] | – |
| CN(C)c1ccc(CNC(=O)C2(C)C=CCN2C(=O)c2ccccc2)cc1 (centres undefined) | inactive | – |
| COC(=O)c1cc(-c2ccc(OC)c(OC)c2)n[nH]1 | inactive | – |
